The molecules below were run against PRMT5/MEP50 Complex (Homo sapiens (Human), UniProt O14744) (assay: PRMT5 inhibition based on TR-FRET assay). Conditions: 32 nM PRMT5:MEP50, 50 nM Histone-H4 peptide, 1 μM SAM.
Format: biochemical
Text: PRMT5 Inhibition Based on TR-FRET Assay:
Protein arginine methyltransferase 5 (PRMT5) is a type II arginine methyltransferase that catalyze mono- and symmetric demethylation on arginine residues of histone or non-histone proteins in presence of S-adenosylmethionine (AdoMet or SAM) a cofactor responsible for donating the methyl group. PRMT5 is reported to be overexpressed in several human cancers. To identify compounds that inhibit the PRMT5 and decrease its activity, a TR-FRET based assay has been established. Time-resolved fluorescence resonance energy transfer (TR-FRET) HTS assays are homogeneous proximity assays where the interaction of two dye-labeled binding partners is detected by the energy transfer between a donor and an acceptor dye and the subsequent light emission by the acceptor dye. PRMT5 catalyzes Histone H4 peptide which is biotin tagged to the Lysine amino acid at carboxyl end, in presence of S-adenosyl-1-methionine (SAM) to methylate the peptide. The antibody specific to mono methylated H4 peptide (H4R3) with Ig conjugate binds to the methylated peptide, indirectly binding to the Europium lanthanide. SureLight Allophycocyanin-Streptavidin binds to the biotin tag of the peptide, therefore accepting the energy transferred from the Europium lanthanide. This energy transfer between Europium to SureLight Allophycocyanin is a direct measure of the activity/inhibition of the PRMT5 enzyme.
Assay buffer: 20 mM BICINE (pH 7.6), 25 mM NaCl, 2 mM DTT, 0.01% Tween-20 and 0.01% BSA.
The compound dilutions were prepared as 7.5% DMSO stock solutions in assay buffer. To 2 μL (7.5×) of test compound, 5 μL of PRMT5 enzyme prepared in assay buffer (Final concentration of 32 nM in 15 μL reaction volume) was added and allowed for 30 minutes pre-incubation time in a white polystyrene 384-well plate at room temperature. […] The plates were then read on Victor-3 with Excitation at 340 nm and Emissions collected at 615 and 665 nm in TR-FRET protocol. […]

Chain of UniProt O14744 (O14744 whole entry): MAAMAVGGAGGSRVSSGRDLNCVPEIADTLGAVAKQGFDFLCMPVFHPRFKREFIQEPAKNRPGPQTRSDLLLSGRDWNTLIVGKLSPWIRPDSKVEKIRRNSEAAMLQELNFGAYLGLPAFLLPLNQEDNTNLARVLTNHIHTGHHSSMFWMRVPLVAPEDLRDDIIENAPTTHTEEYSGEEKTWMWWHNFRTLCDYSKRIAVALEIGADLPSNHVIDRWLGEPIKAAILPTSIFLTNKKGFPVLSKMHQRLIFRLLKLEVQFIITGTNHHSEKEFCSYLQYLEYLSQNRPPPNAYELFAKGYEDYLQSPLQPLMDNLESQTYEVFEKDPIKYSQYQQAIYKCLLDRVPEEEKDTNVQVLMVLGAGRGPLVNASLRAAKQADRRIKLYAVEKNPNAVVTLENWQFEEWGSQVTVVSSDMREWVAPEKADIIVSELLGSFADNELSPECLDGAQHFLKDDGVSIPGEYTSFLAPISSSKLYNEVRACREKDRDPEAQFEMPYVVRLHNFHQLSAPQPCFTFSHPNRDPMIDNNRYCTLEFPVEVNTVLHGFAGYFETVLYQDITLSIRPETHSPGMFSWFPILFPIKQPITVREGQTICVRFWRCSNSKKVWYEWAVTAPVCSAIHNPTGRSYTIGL
Chain of UniProt O14744 (Q9BQA1 whole entry partner): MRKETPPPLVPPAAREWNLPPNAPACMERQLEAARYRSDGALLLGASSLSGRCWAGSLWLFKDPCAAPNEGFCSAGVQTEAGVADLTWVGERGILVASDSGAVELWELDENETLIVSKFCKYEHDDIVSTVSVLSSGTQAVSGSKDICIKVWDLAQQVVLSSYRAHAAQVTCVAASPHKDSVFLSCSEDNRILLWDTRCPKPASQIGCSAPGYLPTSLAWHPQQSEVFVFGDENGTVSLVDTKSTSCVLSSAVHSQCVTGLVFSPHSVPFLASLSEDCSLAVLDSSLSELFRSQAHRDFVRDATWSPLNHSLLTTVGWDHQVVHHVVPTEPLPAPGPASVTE

| SMILES | IC50 |
| --- | --- |
| Cn1cc(CN2CCN(CC(O)CN3CCc4ccccc4C3)C2=O)ccc1=O (stereo not drawn) [Example 44, 5-((3-(3-(3,4-Dihydroisoquinolin-2(1H)-yl)-2-hydroxypropyl)-2-oxoimidazolidin-1-yl)methyl)-1-methylpyridin-2(1H)-one] | 0.61 µM |
| N#Cc1cc(CN2CCN(CC(O)CN3CCc4ccccc4C3)C2=O)ccn1 (stereo not drawn) [Example 42] | 0.37 µM |
| O=C1N(Cc2ccc3c(c2)COCC3)CCN1CC(O)CN1CCc2ccccc2C1 (stereo not drawn) [Example 43, 1-(3-(3,4-Dihydroisoquinolin-2(1H)-yl)-2-hydroxypropyl)-3-(isochroman-7-ylmethyl)imidazolidin-2-one] | 0.27 µM |

From patent US11365205B2 (Aurigene Discovery Technologies Limited, priority 2018, dated 2022)
